Data published in the supplement of paper PMC12217912.
The other results are listed elsewhere or left out. Sequences were assembled here from the parent chain. Inactive controls read about 0.05.

B1: TEV protease; numbered along this chain (parent)
chain: MGESLFKGPRDYNPISSSICHLTNESDGHTTSLYGIGFGPFIITNKHLFRRNNGTLVVQSLHGVFKVKDTTTLQQHLVDGRDMIIIRMPKDFPPFPQKLKFREPQREERICLVTTNFQTKSMSSMVSDTSCTFPSGDGIFWKHWIQTKDGQCGSPLVSTRDGFIVGIHSASNFTNTNNYFTSVPKNFMELLTNQEAQQWVSGWRLNADSVLWGGHKVFMVKPEEPFQPVKEATQL

Variants of: B1
Test: raw area under fraction-flipped curve 0-4 h after induction (AUC4h, not background-subtracted), DNA-recorder readout of cleavage of the substrate (dimensionless); higher = more cleavage of the substrate by the protease variant
Conditions: temperature: 34 °C; time window: 0-4 h after rhamnose induction
Method: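 In vivo DNA recorder in E. coli TOP10(DE3) ΔrhaA at 34 °C. Each TEVp single-site mutant (parent TEVp 0) is paired with a single-site variant of the 7-mer TEVs (canonical ENLYFQ|S). The substrate sits between flexible linkers in a Bxb1-sfGFP-TEVs-SsrA fusion, so cleavage stabilises Bxb1 and speeds flipping of a recombination array, read by NGS. The value is the raw area under the fraction-flipped curve over 0-4 h after rhamnose induction (AUC4h), with ≥20 reads per time point. It is not background-subtracted; inactive controls average about 0.047.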
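Note: Bxb1 expression induced with 0.2% (w/v) L-rhamnose at OD600 near 0.5, cultures sampled hourly, flipped fraction per protease–substrate barcode pair counted by paired-end Illumina sequencing.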

Variant	area with substrate ENLYFQA	area with substrate ENLYFQC	area with substrate ENLYFQF	area with substrate ENLYFQG	area with substrate ENLYFQH	area with substrate ENLYFQI	area with substrate ENLYFQL	area with substrate ENLYFQN	area with substrate ENLYFQP	area with substrate ENLYFQR	area with substrate ENLYFQS	area with substrate ENLYFQT	area with substrate ENLYFQW	area with substrate ENLYFQY	area with substrate ENLYFQK	area with substrate ENLYFQM	area with substrate ENLYFQV	area with substrate ENLYFQE	area with substrate ENLYFQQ	area with substrate ENLYFQD
MGESLFKGPRWYNPISSSICHLTNESDGHTTSLYGIGFGPFIITNKHLFRRNNGTLVVQSLHGVFKVKDTTTLQQHLVDGRDMIIIRMPKDFPPFPQKLKFREPQREERICLVTTNFQTKSMSSMVSDTSCTFPSGDGIFWKHWIQTKDGQCGSPLVSTRDGFIVGIHSASNFTNTNNYFTSVPKNFMELLTNQEAQQWVSGWRLNADSVLWGGHKVFMVKPEEPFQPVKEATQL [D11W]	0.117	0.106	0.0786	0.119	0.0948	0.0592	0.0696	0.0699	0.0649	0.066	0.095	0.0696	0.0617	0.0822	–	–	–	–	–	–
MGESLFKGPSDYNPISSSICHLTNESDGHTTSLYGIGFGPFIITNKHLFRRNNGTLVVQSLHGVFKVKDTTTLQQHLVDGRDMIIIRMPKDFPPFPQKLKFREPQREERICLVTTNFQTKSMSSMVSDTSCTFPSGDGIFWKHWIQTKDGQCGSPLVSTRDGFIVGIHSASNFTNTNNYFTSVPKNFMELLTNQEAQQWVSGWRLNADSVLWGGHKVFMVKPEEPFQPVKEATQL [R10S]	0.0877	0.0878	0.0717	0.0983	0.0796	–	0.0702	0.0679	0.0586	0.0566	0.0966	0.0651	0.0655	–	0.0753	0.102	0.0731	–	–	–
MGESLFKGPKDYNPISSSICHLTNESDGHTTSLYGIGFGPFIITNKHLFRRNNGTLVVQSLHGVFKVKDTTTLQQHLVDGRDMIIIRMPKDFPPFPQKLKFREPQREERICLVTTNFQTKSMSSMVSDTSCTFPSGDGIFWKHWIQTKDGQCGSPLVSTRDGFIVGIHSASNFTNTNNYFTSVPKNFMELLTNQEAQQWVSGWRLNADSVLWGGHKVFMVKPEEPFQPVKEATQL [R10K]	0.0715	0.103	–	–	0.0582	0.078	0.0516	0.0633	0.0474	0.0479	0.0911	0.063	0.062	0.0643	–	0.0763	0.0467	–	–	–
MGESLFKGPRDYNPIMSSICHLTNESDGHTTSLYGIGFGPFIITNKHLFRRNNGTLVVQSLHGVFKVKDTTTLQQHLVDGRDMIIIRMPKDFPPFPQKLKFREPQREERICLVTTNFQTKSMSSMVSDTSCTFPSGDGIFWKHWIQTKDGQCGSPLVSTRDGFIVGIHSASNFTNTNNYFTSVPKNFMELLTNQEAQQWVSGWRLNADSVLWGGHKVFMVKPEEPFQPVKEATQL [S16M]	0.0975	0.102	0.0928	–	0.0919	0.0614	0.0622	0.0548	–	0.0613	0.111	0.0656	0.0647	–	0.065	0.0887	0.0496	0.064	–	–
MGESLFKGPRDYNPIESSICHLTNESDGHTTSLYGIGFGPFIITNKHLFRRNNGTLVVQSLHGVFKVKDTTTLQQHLVDGRDMIIIRMPKDFPPFPQKLKFREPQREERICLVTTNFQTKSMSSMVSDTSCTFPSGDGIFWKHWIQTKDGQCGSPLVSTRDGFIVGIHSASNFTNTNNYFTSVPKNFMELLTNQEAQQWVSGWRLNADSVLWGGHKVFMVKPEEPFQPVKEATQL [S16E]	0.105	0.111	0.0765	0.0772	0.0824	0.0606	0.0632	0.084	0.0581	0.0604	0.101	0.0755	0.0654	0.0736	0.0588	0.0913	0.0524	–	0.0786	–
MGESLFKGPRDYNPIDSSICHLTNESDGHTTSLYGIGFGPFIITNKHLFRRNNGTLVVQSLHGVFKVKDTTTLQQHLVDGRDMIIIRMPKDFPPFPQKLKFREPQREERICLVTTNFQTKSMSSMVSDTSCTFPSGDGIFWKHWIQTKDGQCGSPLVSTRDGFIVGIHSASNFTNTNNYFTSVPKNFMELLTNQEAQQWVSGWRLNADSVLWGGHKVFMVKPEEPFQPVKEATQL [S16D]	0.0751	–	–	0.0752	–	0.071	0.0616	0.0726	–	0.0634	0.0958	0.0626	0.0383	–	0.068	0.0586	–	–	0.0573	0.0673
MGESLFKGPRDYNPIISSICHLTNESDGHTTSLYGIGFGPFIITNKHLFRRNNGTLVVQSLHGVFKVKDTTTLQQHLVDGRDMIIIRMPKDFPPFPQKLKFREPQREERICLVTTNFQTKSMSSMVSDTSCTFPSGDGIFWKHWIQTKDGQCGSPLVSTRDGFIVGIHSASNFTNTNNYFTSVPKNFMELLTNQEAQQWVSGWRLNADSVLWGGHKVFMVKPEEPFQPVKEATQL [S16I]	0.0998	0.0719	0.0856	0.0943	0.0704	0.0562	0.0693	0.0869	0.0492	0.0737	0.0894	0.0687	0.0557	0.0701	0.0768	0.0759	0.0607	0.0548	0.0529	0.075
MGESLFKGPRDYNPIASSICHLTNESDGHTTSLYGIGFGPFIITNKHLFRRNNGTLVVQSLHGVFKVKDTTTLQQHLVDGRDMIIIRMPKDFPPFPQKLKFREPQREERICLVTTNFQTKSMSSMVSDTSCTFPSGDGIFWKHWIQTKDGQCGSPLVSTRDGFIVGIHSASNFTNTNNYFTSVPKNFMELLTNQEAQQWVSGWRLNADSVLWGGHKVFMVKPEEPFQPVKEATQL [S16A]	0.11	0.107	0.0893	0.0934	0.078	–	0.0568	–	0.0649	0.0739	0.109	0.0686	0.0606	–	0.0674	0.101	0.0642	0.0757	0.0831	–
